Experimental data: patent US20130164251A1 (JIANGSU T MAB BIOPHARMA, published 2013)

T1: G-CSF receptor G-CSFR (R & D company, Item No. 381GR/CF) (UniProt Q99062 25-621, limits assumed)
T1 construct: Bought reagent, amine-coupled to a CM5 chip; also called the receptor
T1 sequence (looked up): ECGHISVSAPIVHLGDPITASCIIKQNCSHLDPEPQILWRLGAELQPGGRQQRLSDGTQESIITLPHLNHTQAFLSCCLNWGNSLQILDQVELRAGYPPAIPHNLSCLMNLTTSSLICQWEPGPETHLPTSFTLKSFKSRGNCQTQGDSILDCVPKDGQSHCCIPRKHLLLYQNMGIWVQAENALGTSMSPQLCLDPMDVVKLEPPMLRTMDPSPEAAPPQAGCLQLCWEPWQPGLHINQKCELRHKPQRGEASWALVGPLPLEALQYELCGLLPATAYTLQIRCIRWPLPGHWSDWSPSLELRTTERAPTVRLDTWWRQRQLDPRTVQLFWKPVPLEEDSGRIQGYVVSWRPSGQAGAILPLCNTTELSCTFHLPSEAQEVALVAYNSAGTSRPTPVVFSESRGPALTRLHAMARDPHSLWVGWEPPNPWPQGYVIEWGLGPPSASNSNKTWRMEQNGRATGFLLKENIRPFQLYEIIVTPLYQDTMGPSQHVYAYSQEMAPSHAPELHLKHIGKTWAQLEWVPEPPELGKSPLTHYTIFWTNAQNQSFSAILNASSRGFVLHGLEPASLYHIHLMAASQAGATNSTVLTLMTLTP

B1: rHSA/G-CSF mutant L35I (ligand)
chain: [not shown - about 600 residues]TPLGPASSLPQSFLLKCLEQVRKIQGDGAALQEKICATYKLCHPEELVLLGHSLGIPWAPLSSCPSQALQLAGCLSQLHSGLFLYQGLLQALEGISPELGPTLDTLQLDVADFATTIWQQMEELGMAPALQPTQGAMPAFASAFQRRAGGVLVASHLQSFLEVSYRVLRHLAQP
notes: expressed in Pichia pastoris
B2: rHSA/G-CSF mutant L35I + K40H (ligand)
chain: [not shown - about 600 residues]TPLGPASSLPQSFLLKCLEQVRKIQGDGAALQEKICATYHLCHPEELVLLGHSLGIPWAPLSSCPSQALQLAGCLSQLHSGLFLYQGLLQALEGISPELGPTLDTLQLDVADFATTIWQQMEELGMAPALQPTQGAMPAFASAFQRRAGGVLVASHLQSFLEVSYRVLRHLAQP
notes: expressed in Pichia pastoris
B3: rHSA/G-CSF mutant L35I + L41I (ligand)
chain: [not shown - about 600 residues]TPLGPASSLPQSFLLKCLEQVRKIQGDGAALQEKICATYKICHPEELVLLGHSLGIPWAPLSSCPSQALQLAGCLSQLHSGLFLYQGLLQALEGISPELGPTLDTLQLDVADFATTIWQQMEELGMAPALQPTQGAMPAFASAFQRRAGGVLVASHLQSFLEVSYRVLRHLAQP
notes: expressed in Pichia pastoris
B4: rHSA/G-CSF mutant L41I (ligand)
chain: [not shown - about 600 residues]TPLGPASSLPQSFLLKCLEQVRKIQGDGAALQEKLCATYKICHPEELVLLGHSLGIPWAPLSSCPSQALQLAGCLSQLHSGLFLYQGLLQALEGISPELGPTLDTLQLDVADFATTIWQQMEELGMAPALQPTQGAMPAFASAFQRRAGGVLVASHLQSFLEVSYRVLRHLAQP
notes: expressed in Pichia pastoris
B5: rHSA/G-CSF mutant L108I (ligand)
chain: [not shown - about 600 residues]TPLGPASSLPQSFLLKCLEQVRKIQGDGAALQEKLCATYKLCHPEELVLLGHSLGIPWAPLSSCPSQALQLAGCLSQLHSGLFLYQGLLQALEGISPELGPTLDTLQIDVADFATTIWQQMEELGMAPALQPTQGAMPAFASAFQRRAGGVLVASHLQSFLEVSYRVLRHLAQP
notes: expressed in Pichia pastoris
B6: rHSA/G-CSF mutant L124I (ligand)
chain: [not shown - about 600 residues]TPLGPASSLPQSFLLKCLEQVRKIQGDGAALQEKLCATYKLCHPEELVLLGHSLGIPWAPLSSCPSQALQLAGCLSQLHSGLFLYQGLLQALEGISPELGPTLDTLQLDVADFATTIWQQMEEIGMAPALQPTQGAMPAFASAFQRRAGGVLVASHLQSFLEVSYRVLRHLAQP
notes: expressed in Pichia pastoris
B7: rHSA/G-CSF mutant P2K (ligand)
chain: [not shown - about 600 residues]TKLGPASSLPQSFLLKCLEQVRKIQGDGAALQEKLCATYKLCHPEELVLLGHSLGIPWAPLSSCPSQALQLAGCLSQLHSGLFLYQGLLQALEGISPELGPTLDTLQLDVADFATTIWQQMEELGMAPALQPTQGAMPAFASAFQRRAGGVLVASHLQSFLEVSYRVLRHLAQP
notes: expressed in Pichia pastoris
B8: rHSA/G-CSF mutant P5R (ligand)
chain: [not shown - about 600 residues]TPLGRASSLPQSFLLKCLEQVRKIQGDGAALQEKLCATYKLCHPEELVLLGHSLGIPWAPLSSCPSQALQLAGCLSQLHSGLFLYQGLLQALEGISPELGPTLDTLQLDVADFATTIWQQMEELGMAPALQPTQGAMPAFASAFQRRAGGVLVASHLQSFLEVSYRVLRHLAQP
notes: expressed in Pichia pastoris
B9: rHSA/G-CSF mutant P10K (ligand)
chain: [not shown - about 600 residues]TPLGPASSLKQSFLLKCLEQVRKIQGDGAALQEKLCATYKLCHPEELVLLGHSLGIPWAPLSSCPSQALQLAGCLSQLHSGLFLYQGLLQALEGISPELGPTLDTLQLDVADFATTIWQQMEELGMAPALQPTQGAMPAFASAFQRRAGGVLVASHLQSFLEVSYRVLRHLAQP
notes: expressed in Pichia pastoris
B10: rHSA/G-CSF mutant P44K (ligand)
chain: [not shown - about 600 residues]TPLGPASSLPQSFLLKCLEQVRKIQGDGAALQEKLCATYKLCHKEELVLLGHSLGIPWAPLSSCPSQALQLAGCLSQLHSGLFLYQGLLQALEGISPELGPTLDTLQLDVADFATTIWQQMEELGMAPALQPTQGAMPAFASAFQRRAGGVLVASHLQSFLEVSYRVLRHLAQP
notes: expressed in Pichia pastoris
B11: rHSA/G-CSF mutant Q11N (ligand)
chain: [not shown - about 600 residues]TPLGPASSLPNSFLLKCLEQVRKIQGDGAALQEKLCATYKLCHPEELVLLGHSLGIPWAPLSSCPSQALQLAGCLSQLHSGLFLYQGLLQALEGISPELGPTLDTLQLDVADFATTIWQQMEELGMAPALQPTQGAMPAFASAFQRRAGGVLVASHLQSFLEVSYRVLRHLAQP
notes: expressed in Pichia pastoris
B12: rHSA/G-CSF mutant Q20N (ligand)
chain: [not shown - about 600 residues]TPLGPASSLPQSFLLKCLENVRKIQGDGAALQEKLCATYKLCHPEELVLLGHSLGIPWAPLSSCPSQALQLAGCLSQLHSGLFLYQGLLQALEGISPELGPTLDTLQLDVADFATTIWQQMEELGMAPALQPTQGAMPAFASAFQRRAGGVLVASHLQSFLEVSYRVLRHLAQP
notes: expressed in Pichia pastoris
B13: rHSA/G-CSF mutant Q70K (ligand)
chain: [not shown - about 600 residues]TPLGPASSLPQSFLLKCLEQVRKIQGDGAALQEKLCATYKLCHPEELVLLGHSLGIPWAPLSSCPSQALKLAGCLSQLHSGLFLYQGLLQALEGISPELGPTLDTLQLDVADFATTIWQQMEELGMAPALQPTQGAMPAFASAFQRRAGGVLVASHLQSFLEVSYRVLRHLAQP
notes: expressed in Pichia pastoris
B14: rHSA/G-CSF mutant Q90K (ligand)
chain: [not shown - about 600 residues]TPLGPASSLPQSFLLKCLEQVRKIQGDGAALQEKLCATYKLCHPEELVLLGHSLGIPWAPLSSCPSQALQLAGCLSQLHSGLFLYQGLLKALEGISPELGPTLDTLQLDVADFATTIWQQMEELGMAPALQPTQGAMPAFASAFQRRAGGVLVASHLQSFLEVSYRVLRHLAQP
notes: expressed in Pichia pastoris
B15: rHSA/G-CSF mutant Q119N (ligand)
chain: [not shown - about 600 residues]TPLGPASSLPQSFLLKCLEQVRKIQGDGAALQEKLCATYKLCHPEELVLLGHSLGIPWAPLSSCPSQALQLAGCLSQLHSGLFLYQGLLQALEGISPELGPTLDTLQLDVADFATTIWNQMEELGMAPALQPTQGAMPAFASAFQRRAGGVLVASHLQSFLEVSYRVLRHLAQP
notes: expressed in Pichia pastoris
B16: rHSA/G-CSF mutant Q120K (ligand)
chain: [not shown - about 600 residues]TPLGPASSLPQSFLLKCLEQVRKIQGDGAALQEKLCATYKLCHPEELVLLGHSLGIPWAPLSSCPSQALQLAGCLSQLHSGLFLYQGLLQALEGISPELGPTLDTLQLDVADFATTIWQKMEELGMAPALQPTQGAMPAFASAFQRRAGGVLVASHLQSFLEVSYRVLRHLAQP
notes: expressed in Pichia pastoris
B17: rHSA/G-CSF mutant S7T (ligand)
chain: [not shown - about 600 residues]TPLGPATSLPQSFLLKCLEQVRKIQGDGAALQEKLCATYKLCHPEELVLLGHSLGIPWAPLSSCPSQALQLAGCLSQLHSGLFLYQGLLQALEGISPELGPTLDTLQLDVADFATTIWQQMEELGMAPALQPTQGAMPAFASAFQRRAGGVLVASHLQSFLEVSYRVLRHLAQP
notes: expressed in Pichia pastoris
B18: rHSA/G-CSF mutant S12T (ligand)
chain: [not shown - about 600 residues]TPLGPASSLPQTFLLKCLEQVRKIQGDGAALQEKLCATYKLCHPEELVLLGHSLGIPWAPLSSCPSQALQLAGCLSQLHSGLFLYQGLLQALEGISPELGPTLDTLQLDVADFATTIWQQMEELGMAPALQPTQGAMPAFASAFQRRAGGVLVASHLQSFLEVSYRVLRHLAQP
notes: expressed in Pichia pastoris
B19: rHSA/G-CSF mutant T1A (ligand)
chain: [not shown - about 600 residues]APLGPASSLPQSFLLKCLEQVRKIQGDGAALQEKLCATYKLCHPEELVLLGHSLGIPWAPLSSCPSQALQLAGCLSQLHSGLFLYQGLLQALEGISPELGPTLDTLQLDVADFATTIWQQMEELGMAPALQPTQGAMPAFASAFQRRAGGVLVASHLQSFLEVSYRVLRHLAQP
notes: expressed in Pichia pastoris
B20: rHSA/G-CSF mutant T38S (ligand)
chain: [not shown - about 600 residues]TPLGPASSLPQSFLLKCLEQVRKIQGDGAALQEKLCASYKLCHPEELVLLGHSLGIPWAPLSSCPSQALQLAGCLSQLHSGLFLYQGLLQALEGISPELGPTLDTLQLDVADFATTIWQQMEELGMAPALQPTQGAMPAFASAFQRRAGGVLVASHLQSFLEVSYRVLRHLAQP
notes: expressed in Pichia pastoris
B21: rHSA/G-CSF mutant T116S (ligand)
chain: [not shown - about 600 residues]TPLGPASSLPQSFLLKCLEQVRKIQGDGAALQEKLCATYKLCHPEELVLLGHSLGIPWAPLSSCPSQALQLAGCLSQLHSGLFLYQGLLQALEGISPELGPTLDTLQLDVADFATSIWQQMEELGMAPALQPTQGAMPAFASAFQRRAGGVLVASHLQSFLEVSYRVLRHLAQP
notes: expressed in Pichia pastoris

Each binder was assayed against T1, G-CSF receptor G-CSFR (R & D company, …) (assay: SPR (Biacore 3000), G-CSFR amine-coupled to CM5 chip, 1:1 Langmuir fit).
Method: The receptor G-CSFR (R & D company, Item No. 381GR/CF) was coupled to FC₄ cell of a CM5 chip by using an amine coupling method in Biacore® 3000 control software Wizard. HBS-P buffer (10 mM HEPES, 150 mM NaCl, and 0.005% (v/v) surfactant P20, pH 7.4) was used as the working buffer, and 1 mg/mL of G-CSFR was diluted with 10 mM NaAC (pH 4.5) to a final concentration of 20 μg/mL. A 1:1 mixture of 0.2 M EDC and 50 mM NHS was injected by flowing through the surface of the chip at a rate of 10 μL/min, G-CSFR solution was injected, then 1 M ethanolamine (pH 8.5) was injected for 7 min to block the activated chip surface.
rHSA/mG-CSF and G-CSF standards were quantitatively diluted with a HBS-P buffer, and a kinetic test was conducted following a kinetic analysis Wizard in Biacore® 3000 control software. All the samples were injected at the flow rate of 30 μL/min, and the injection time of 3 min. After 5 min of disassociation, 50 mM NaOH, 1 M NaCL, and HBS-P buffer were respectively injected for 15 s and 60 s at a flow rate of 100 μL/min for regeneration. The obtained data was fitted using a 1:1 Langmuir binding model in Biacore 3000 analysis software, to obtain exact kinetic constants: […]

In order of falling Kd:
1. B12  97.5 nM
2. B2  25.5 nM
3. B3  23.5 nM
4. B4  17.1 nM
5. B1  12.5 nM
6. B5  7.2 nM
7. B14  6.8 nM
8. B20  6.7 nM
9. B13  5.9 nM
10. B11  3.4 nM
11. B21  2.5 nM
12. B15  1.8 nM
13. B19  1.7 nM
14. B10  1.6 nM
15. B17  1.6 nM
16. B8  1.5 nM
17. B16  1.5 nM
18. B6  1.4 nM
19. B7  1.2 nM
20. B18  1.1 nM
21. B9  0.9 nM
